About 14,000 (4.5%) of roughly 310,000 compounds showed an effect of 50% or more. The effect is printed as a negative number. This is one part of the list.
Biological target: human ether-à-go-go-related gene (hERG) potassium channel (human, UniProt Q12809)
Experiment: primary screen, population patch clamp on CHO cells stably expressing hERG
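Note: peak tail current of the secondary pulse compared with the same well before compound.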

Sequence of human ether-à-go-go-related gene (hERG) potassium channel (Q12809 whole entry, looked up): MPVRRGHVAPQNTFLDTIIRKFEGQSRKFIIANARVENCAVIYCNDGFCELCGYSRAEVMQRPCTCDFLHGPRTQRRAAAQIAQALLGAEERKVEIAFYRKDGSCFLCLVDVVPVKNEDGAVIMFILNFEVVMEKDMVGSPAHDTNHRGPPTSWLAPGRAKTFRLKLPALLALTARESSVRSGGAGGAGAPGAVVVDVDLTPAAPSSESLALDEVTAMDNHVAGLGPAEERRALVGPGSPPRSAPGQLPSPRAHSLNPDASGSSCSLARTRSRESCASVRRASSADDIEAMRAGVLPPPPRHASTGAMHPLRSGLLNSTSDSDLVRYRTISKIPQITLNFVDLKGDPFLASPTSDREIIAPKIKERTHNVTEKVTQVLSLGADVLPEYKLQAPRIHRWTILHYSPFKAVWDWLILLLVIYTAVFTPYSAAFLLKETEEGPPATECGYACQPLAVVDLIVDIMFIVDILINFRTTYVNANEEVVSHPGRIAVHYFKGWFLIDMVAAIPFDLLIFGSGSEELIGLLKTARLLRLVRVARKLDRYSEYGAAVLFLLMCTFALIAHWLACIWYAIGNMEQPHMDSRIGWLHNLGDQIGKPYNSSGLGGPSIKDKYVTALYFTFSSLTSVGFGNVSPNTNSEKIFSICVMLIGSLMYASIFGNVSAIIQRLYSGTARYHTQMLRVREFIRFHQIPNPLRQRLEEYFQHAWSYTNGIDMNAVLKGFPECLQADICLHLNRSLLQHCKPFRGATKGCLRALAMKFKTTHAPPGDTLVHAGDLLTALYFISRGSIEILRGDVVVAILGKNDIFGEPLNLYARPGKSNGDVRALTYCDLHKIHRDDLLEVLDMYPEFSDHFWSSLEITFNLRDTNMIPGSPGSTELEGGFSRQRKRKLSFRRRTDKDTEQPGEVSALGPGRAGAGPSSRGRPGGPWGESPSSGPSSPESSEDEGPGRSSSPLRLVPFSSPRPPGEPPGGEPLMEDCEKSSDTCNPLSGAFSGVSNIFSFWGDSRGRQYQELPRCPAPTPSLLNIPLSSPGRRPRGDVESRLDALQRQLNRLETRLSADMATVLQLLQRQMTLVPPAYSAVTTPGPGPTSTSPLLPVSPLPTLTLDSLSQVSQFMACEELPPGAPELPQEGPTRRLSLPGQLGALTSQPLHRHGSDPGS

SMILES	hERG current change (%, negative = inhibition) at 10uM
CCCC(=O)NC(=S)Nc1ccc(CN2CCOCC2)cc1	25.2%
Cc1[nH]n(-c2ccccc2)c(=O)c1C(C[N+](=O)[O-])c1ccc(Cl)cc1 (centres unmarked)	-6.43%
CC1(C)Cc2nc(Cl)c(C#N)cc2CO1	3.89%
O=S(=O)(NC1Cc2ccccc2C1)c1ccccc1	1.65%
CC(=O)Cn1c(N2CCC(Cc3ccccc3)CC2)nc2c1c(=O)[nH]c(=O)n2C	10.3%
Cc1ccc(NC(=S)N(CCCN2CCCC(C)C2)Cc2ccco2)cc1C (centres unmarked)	-76.2%
COCCNC(=O)Cn1cc(C(=O)c2ccccc2F)c2ccccc21	12.5%
COc1cc2c(cc1OC)C(Nn1cnnc1)=NC1(CCCC1)C2	2.86%
CCCN1CCc2c(sc(NC(=O)c3ccc(S(=O)(=O)N(C)c4ccccc4)cc3)c2C(N)=O)C1	16.5%
Cc1cc(Nc2ccccc2)nn1C(=O)c1ccc([N+](=O)[O-])cc1	21%
CC(NC(=O)COc1ccc(S(=O)(=O)N2CCCC2)cc1)c1ccccc1 (centres unmarked)	7.5%
CC1CCN(S(=O)(=O)c2ccc(NC(=O)CSc3ncccc3C(=O)O)cc2)CC1	7.31%
Cc1nn(-c2ccccn2)c2c1-c1nc(N)ncc1CC2	5.03%
O=C(Nc1cccc(F)c1)C1CCCN(S(=O)(=O)c2cnc[nH]2)C1 (centres unmarked)	17.4%
CCOc1ccc(-c2cnc(SCC(N)=O)nc2N)cc1	4.44%
CCOC(=O)c1c(NC(=O)CSc2nc(C)cc(C)c2C#N)sc(C(C)=O)c1C	7.14%
Cc1ccc(-c2cc(N)on2)cc1	8.36%
O=C(CN1CCN(S(=O)(=O)/C=C/c2ccccc2)CC1)Nc1ccc(N2CCOCC2)cc1	35.9%
CCN(c1ccccc1)S(=O)(=O)c1ccc(N)cc1	-6.55%
CC(=O)N1c2ccc(S(=O)(=O)N3CCC(C(=O)Nc4cccc(C(F)(F)F)c4)CC3)cc2CC1C (centres unmarked)	11.7%
O=C(CCNC(=O)C1CCN(S(=O)(=O)c2ccccc2)CC1)NCc1cccc(Cl)c1	-45.8%
CCOC(=O)N1CCC(NC(=O)CCS(=O)(=O)c2ccc3c(c2)CCN3C(=O)CC)CC1	2.77%

SMILES	hERG current change (%, negative = inhibition) at 10uM
COc1ccc(C(=O)NCCNc2nc3cc(C)c(C)cc3cc2C)cc1	7.22%
CCCCn1c(O)c(C(C)=NCC2CCCO2)c(=O)[nH]c1=O (centres unmarked)	-6.11%
COc1ccc(S(=O)(=O)CCC(=O)NCCc2ccc(C)cc2)cc1	-0.726%
O=C(Nc1ccc(Br)cc1)C1CCCC1	9.31%
Cc1cc(NC(=O)CCC(=O)N(c2ccccc2)C(C(=O)NC(C)(C)C)c2ccccc2Cl)no1 (centres unmarked)	-5.48%
CC1CCN(C(=O)c2ccc(S(=O)(=O)Cc3cc(F)ccc3F)c([N+](=O)[O-])c2)CC1	-23.5%
CC1CC(C)CN(CC(C)(C)NS(=O)(=O)c2ccc(Cl)cc2)C1 (centres unmarked)	-18.7%
CCCc1c(C)c2c(C)[nH]nc2oc1=O	-1.89%
OCCN1CCN(c2ncnc3scc(-c4ccc(F)cc4)c23)CC1	-22.1%
CC(Oc1cc2oc(=O)c3c(c2cc1Cl)CCCC3)C(=O)NCc1ccccn1 (centres unmarked)	-26.8%
c1cc(C(c2nnnn2C2CCCCC2)N2CCN3CCCC3C2)ccn1 (centres unmarked)	-1.98%
O=C(N/N=C/c1cccc(OC(=O)c2cccc(Br)c2)c1)c1cccnc1	0.405%
Cc1ccc(N(C(C)C(=O)O)S(=O)(=O)c2c(C)n[nH]c2C)cc1 (centres unmarked)	25.6%
COc1ccc(C(=O)C[n+]2ccc(-c3nnc4n3CCC4)cc2)cc1.[Br-]	22.1%
Cc1ccc(OCC(=O)Nc2ccc(S(=O)(=O)N3CCOCC3)cc2)c(Br)c1	6.42%
CCCOc1ccccc1C(=O)N(Cc1ccc(C)o1)C1CCS(=O)(=O)C1 (centres unmarked)	-17%
COCCN(C(=O)COC(=O)CSc1ccc(Cl)cc1)c1c(N)n(Cc2ccccc2)c(=O)[nH]c1=O	9.76%
COc1ccc(NC(=O)c2c(F)c(F)c(F)c(F)c2F)cc1Cl	3.45%
CN(Cc1cccnc1)C(=O)CNC(=O)c1ccc(Cl)cc1Cl	-17.2%
CN1CCC(=O)N([C@H](CSc2ccc(Br)cc2)c2ccccc2)CC1	-83.7%
C#CCN(CC=C)C(=O)CCc1nnc(COc2ccccc2)o1	6.9%
CN1CCN(P(=O)(c2ccccc2)c2nc3ccccc3s2)CC1 (centres unmarked)	-14.5%
